Hit rate of the full screen: of about 300,000 compounds, about 22,000 (7.3%) were called active. The inconclusive results got no clear call from the source; some entries with a clear call stand among them for comparison. No stated cut-off is given here; in the data, active means activity score below about -60%; inconclusive means mostly about -28% to -61%; inactive means positive scores.
Assay: Activators via SNCA 5'UTR binding, MLPCN (AID 1814)
Conditions: alpha-synuclein 5'UTR reporter, activators screen; active compounds read low; tested at 7.5 µM

For `COc1cc(Cl)ccc1OCc1cc(C(=O)NCC(C)(C)N2CCOCC2)no1`, which activity score is on record?
The activity score was inconclusive: -55%.

For `COc1ccc2cc1Oc1ccc(cc1)CC1c3c(cc(OC)c4c3Oc3cc5c(cc3O4)CCNC5C2)CCN1C` (configuration not stated), which activity score is on record?
Its activity score is inactive: 114%.

Which activity score does the source give for `N#CCC(CNc1ncc(C(F)(F)F)cc1Cl)OC(=O)c1cccc([N+](=O)[O-])c1` (configuration not stated) here?
The activity score was inconclusive: -60.7%.

With `O=C(O)c1ccccc1C(=O)NNc1ccc(F)cc1F` as the molecule, how does the activity score read?
Its activity score is inconclusive: -57.7%.

With `O=C(Cn1cnc2c(cnn2-c2ccccc2)c1=O)NC1CCCC1` as the molecule, how does the activity score read?
The activity score was inconclusive: -52.6%.

With `O=C1CC(c2ccccc2)=Nc2ccccc2N1` as the molecule, how does the activity score read?
The activity score was inconclusive: -37.3%.

With `Nc1ccc(-c2nc3c(Cl)cc(N)cc3[nH]2)cc1` as the molecule, how does the activity score read?
The activity score was inactive: 85.2%.

For `COc1ccccc1CN1C[C@@H]2C[C@@H](c3[nH]c4c(C)cccc4c3C)N3CCC[C@@]23C1=O`, which activity score is on record?
The activity score was inconclusive: -45.3%.

For `COc1ccccc1CNC(=O)c1cc2ccccc2oc1=O`, which activity score is on record?
The activity score was inconclusive: -44.1%.

For `COc1ccc2c(c1)C(=O)c1ccccc1CO2`, which activity score is on record?
The activity score was active: -242%.

For `O=C(/C=C/c1ccco1)Nc1sc2c(c1C(=O)O)CCC2`, which activity score is on record?
The activity score was inconclusive: -56.9%.

With `O=C(Nc1cccc(-c2nc3ccccc3o2)c1)c1ccc(N2C(=O)C3C4C=CC(C4)C3C2=O)cc1` (configuration not stated) as the molecule, how does the activity score read?
The activity score was inactive: 88.3%.

For `CCOC(=O)c1c(C)oc2c1cc(O)c1ccccc12`, which activity score is on record?
Its activity score is active: -104%.

Which activity score does the source give for `C=CCn1c(=O)c(C(=O)Nc2ccccc2O)c(O)c2ccccc21` here?
Its activity score is inconclusive: -37.3%.

For `CCN(C(=S)Nc1cc(S(=O)(=O)N2CCOCC2)ccc1Cl)c1cccc2ccccc12`, which activity score is on record?
Its activity score is inconclusive: -44.1%.

With `O=C(NCCN1C(=O)C2C3C=CC(C3)C2C1=O)Nc1ccc(Br)cc1` (configuration not stated) as the molecule, how does the activity score read?
Its activity score is active: -144%.

For `O=C(Nc1cccc2ccccc12)c1ccc([N+](=O)[O-])s1`, which activity score is on record?
The activity score was inconclusive: -44.5%.

For `O=C(CNc1ccc2ccccc2c1)N/N=C/c1ccc([N+](=O)[O-])o1`, which activity score is on record?
Its activity score is inconclusive: -59.8%.

For `COc1cccc(/C=C2\NC(=O)NC2=O)c1O`, which activity score is on record?
Its activity score is inconclusive: -56%.

Which activity score does the source give for `CCOCCCNC(=O)c1ccc(N(C)S(=O)(=O)c2ccc(OC)cc2)cc1` here?
Its activity score is inconclusive: -59%.

With `Cc1ccc(NC(=O)COC(=O)c2ccc([N+](=O)[O-])o2)cc1S(=O)(=O)N1CCCCC1` as the molecule, how does the activity score read?
The activity score was inconclusive: -41%.

With `COc1cc(C(=O)Oc2c(CN3CCOCC3)cc(Cl)c3cccnc23)cc(OC)c1OC` as the molecule, how does the activity score read?
Its activity score is inactive: 78.5%.

With `O=C(Nc1ccc2c(c1)OCCO2)N1CCN(c2ccccc2)CC1` as the molecule, how does the activity score read?
Its activity score is inconclusive: -52.1%.

For `N#CC(c1ccc(Cl)cc1)c1ccc2c(C(F)(F)F)cc(C(F)(F)F)nc2n1` (configuration not stated), which activity score is on record?
Its activity score is inactive: 112%.

Which activity score does the source give for `COc1ccccc1N(CC(=O)N/N=C/c1c(O)ccc2ccccc12)S(C)(=O)=O` here?
Its activity score is inactive: 49.3%.

With `COc1ccc(-c2nc(-c3cccc(C)c3)no2)cc1OC` as the molecule, how does the activity score read?
The activity score was active: -200%.

Which activity score does the source give for `CCS(=O)(=O)c1ccc2oc(Nc3ccc(OC)cc3)nc2c1` here?
Its activity score is inconclusive: -50.8%.

With `O=C(C[n+]1cc(-c2ccc(F)cc2)n2c1CCC2)Nc1nc(-c2ccccc2)cs1` as the molecule, how does the activity score read?
Its activity score is active: -89.1%.

With `O=C(CSc1nnc(-c2ccncc2)o1)Nc1ccccc1Cl` as the molecule, how does the activity score read?
Its activity score is inconclusive: -54.9%.

Which activity score does the source give for `O=C1/C(=C/c2cccnc2)SC(=S)N1CC1CCCO1` (configuration not stated) here?
The activity score was inconclusive: -57.7%.

Which activity score does the source give for `CC(=O)Nc1ccc(Nc2nc(C)c([N+](=O)[O-])c(Nc3ccccc3)n2)cc1` here?
Its activity score is inactive: 58.1%.

For `O=C1NCC2=C1C(c1ccc(Br)cc1)Nc1ccccc1N2` (configuration not stated), which activity score is on record?
The activity score was inconclusive: -55.4%.

For `COC(=O)c1cccc(NC(=O)NC(=O)c2ccccc2Cl)c1`, which activity score is on record?
The activity score was inactive: 94.8%.

Which activity score does the source give for `Cc1ccc(NC(=O)Nc2nnc(-c3ccncc3)s2)cc1C` here?
Its activity score is inconclusive: -61.3%.

For `CC(=O)N1CCN(C2=NC(=O)C(=C3CCCCC3)S2)CC1`, which activity score is on record?
Its activity score is inconclusive: -35.7%.

With `CCc1ccc(NC(=O)c2cnn(-c3ccccc3)c2C)cc1` as the molecule, how does the activity score read?
The activity score was active: -82.9%.

For `COC(=O)c1ccc2c(=O)n(Cc3ccc4c(c3)OCO4)c(=S)[nH]c2c1`, which activity score is on record?
Its activity score is inconclusive: -48.6%.

With `O=C(COC(=O)c1cccs1)c1ccc2c(c1)OCCO2` as the molecule, how does the activity score read?
Its activity score is active: -176%.

With `CCOC(=O)c1c(C)oc2cc(Br)c(OC)cc12` as the molecule, how does the activity score read?
Its activity score is inconclusive: -42.9%.

With `CC(=O)Nc1ccc(OS(=O)(=O)c2ccc(Cl)cc2)cc1` as the molecule, how does the activity score read?
The activity score was inconclusive: -42.9%.

Which activity score does the source give for `O=C(Nc1ncccn1)c1ccc(Cl)c([N+](=O)[O-])c1` here?
Its activity score is inconclusive: -48.8%.

With `O=C1/C(=N\S(=O)(=O)c2cccs2)C([n+]2cccc(Cc3ccccc3)c2)=C([O-])c2ccccc21` as the molecule, how does the activity score read?
The activity score was inactive: 84.7%.

With `COc1cccc(NC(=O)CN2CCSc3ccccc32)c1` as the molecule, how does the activity score read?
Its activity score is inconclusive: -37.5%.

With `COc1cccc(-c2nc(-c3ccc4c(c3)NC(=O)CO4)cs2)c1` as the molecule, how does the activity score read?
Its activity score is active: -197%.

Which activity score does the source give for `O=C(CC1NCCNC1=O)Nc1ccc(Cl)c(Cl)c1` (configuration not stated) here?
The activity score was active: -91.7%.

Which activity score does the source give for `COc1ccc(C(=O)Nc2ccc(C3(C#N)CCCC3)cc2)cc1OC` here?
Its activity score is active: -120%.

Which activity score does the source give for `Cc1c(N)ccc(-n2nc3ccccc3n2)c1C` here?
Its activity score is active: -64.6%.

For `CN1CCN(c2ccc(NC(=O)c3ccc(-c4cccc([N+](=O)[O-])c4)o3)cc2)CC1`, which activity score is on record?
The activity score was active: -208%.

For `Cc1cc(C(=O)N/N=C/c2cc(Br)ccc2OC(=O)c2ccccc2Cl)n[nH]1`, which activity score is on record?
Its activity score is inactive: 58.3%.

For `Cc1nc2c(-c3ccc(Cl)cc3)cnn2c(N)c1-c1ccc(F)cc1`, which activity score is on record?
Its activity score is inconclusive: -54.7%.

With `COC(=O)c1cnc(Nc2ccc(Cl)cc2)c([N+](=O)[O-])c1` as the molecule, how does the activity score read?
Its activity score is inconclusive: -53.9%.

Which activity score does the source give for `O=C(NCCc1ccc2c(c1)OCCO2)c1cccc(F)c1` here?
The activity score was inconclusive: -36%.

For `CCOC(=O)c1c(NC2OC(=O)c3c2ccc(OC)c3OC)sc(C(=O)OC(C)(C)C)c1C` (configuration not stated), which activity score is on record?
The activity score was active: -79.5%.

With `Cn1c(/C=C/c2cccc([N+](=O)[O-])c2)c([N+](=O)[O-])c(=O)n(C)c1=O` as the molecule, how does the activity score read?
The activity score was active: -194%.

Which activity score does the source give for `O=C(Nc1ccc(F)cc1F)c1csc(-c2ccncc2)n1` here?
The activity score was inconclusive: -52.4%.

Which activity score does the source give for `COc1cc2ncnc(NCc3ccco3)c2cc1OC` here?
The activity score was inconclusive: -42.6%.

With `CC(C)N(Cc1cnn(C)c1)C(=O)C1CCC(=O)N(CCc2cccc(F)c2)C1` (configuration not stated) as the molecule, how does the activity score read?
Its activity score is inconclusive: -30.7%.
